# Hit rate of the full screen: of about 400,000 compounds, about 2,200 (0.55%) were called active. The inconclusive results got no clear call from the source; some entries with a clear call stand among them for comparison. Calls follow the shape of the dose curve; as a rule, active = well fitted inhibition curve with a large enough effect; inconclusive = small, poorly fitted or top-dose-only effect, or another doubt; inactive = no such curve, though single readings can be large or run the other way. Potencies beside an inconclusive call are fits to weak or partial responses and may not hold up.
# Target: DNA polymerase kappa (Homo sapiens) (UniProt Q9UBT6)
# Assay: qHTS for Inhibitors of Polymerase Kappa
# Settings: purified Pol kappa, fluorescent DNA synthesis assay, 10 min; series mostly up to 107 µM; activity, negative = inhibition: at the top concentration
# Procedure, shortened: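 10 nM Pol kappa preincubated 15 min at room temperature with compounds, then reaction started with substrate at 50 nM final. Fluorescence read kinetically at 0 and 10 min; buffer-only wells served as negative control.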
# % is scaled to controls: 0 for no effect and ±100 for the full control effect; potency is read from the fitted curve at half-maximal effect; tags tell the direction and shape of the fitted curve.
# Sequence of UniProt Q9UBT6 (Q9UBT6 whole entry, looked up): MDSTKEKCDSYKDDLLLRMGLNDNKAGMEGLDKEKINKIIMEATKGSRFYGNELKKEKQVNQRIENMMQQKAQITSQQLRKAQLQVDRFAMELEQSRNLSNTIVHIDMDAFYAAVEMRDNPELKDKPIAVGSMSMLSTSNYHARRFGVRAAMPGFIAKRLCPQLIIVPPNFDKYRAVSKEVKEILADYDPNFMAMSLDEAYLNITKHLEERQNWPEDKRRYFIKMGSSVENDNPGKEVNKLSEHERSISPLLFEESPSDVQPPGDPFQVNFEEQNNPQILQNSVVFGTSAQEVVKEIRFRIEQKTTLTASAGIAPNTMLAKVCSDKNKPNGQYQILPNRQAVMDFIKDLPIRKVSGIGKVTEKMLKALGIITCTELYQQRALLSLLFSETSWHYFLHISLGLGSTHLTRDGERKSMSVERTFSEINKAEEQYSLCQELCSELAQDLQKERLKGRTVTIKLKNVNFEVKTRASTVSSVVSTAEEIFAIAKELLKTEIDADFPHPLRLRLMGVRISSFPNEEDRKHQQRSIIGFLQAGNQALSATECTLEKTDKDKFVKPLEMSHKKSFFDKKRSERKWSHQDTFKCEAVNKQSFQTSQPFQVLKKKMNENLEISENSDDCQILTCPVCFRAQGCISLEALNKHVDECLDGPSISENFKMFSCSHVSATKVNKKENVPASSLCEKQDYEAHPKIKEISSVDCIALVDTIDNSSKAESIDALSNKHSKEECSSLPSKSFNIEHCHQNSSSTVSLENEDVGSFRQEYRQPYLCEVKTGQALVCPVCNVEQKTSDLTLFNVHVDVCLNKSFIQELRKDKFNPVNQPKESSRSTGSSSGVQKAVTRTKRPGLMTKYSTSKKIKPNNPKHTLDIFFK
SMILES,Potency,"activity, negative = inhibition"
CCC(CC)C(=O)Nc1cccc(C(=O)NCc2ccco2)c1,"inconclusive: 89.1 µM [inhibitor, single point]",
Cn1cc(C=C2C(=O)Nc3cccnc32)c2ccccc21,"inconclusive: 29.9 µM [inhibitor, single point]",
CC1=NOC(=O)/C1=C/c1ccc(O)c(Br)c1,,inactive: -5.06%
CCc1ccc(C2c3c(-c4ccccc4O)n[nH]c3C(=O)N2Cc2cccnc2)cc1 (centres undefined),,inactive: -11%
Cn1cccc1-c1cc(C(=O)N/N=C/c2ccc(Cl)cc2)[nH]n1,"inconclusive: 100 µM [inhibitor, partial curve, poor fit]",
COc1ccc(-c2nn(CCC(=O)O)cc2/C=C2\SC(N)=NC2=O)cc1OC,"inconclusive: 89.1 µM [inhibitor, single point]",
CC(=O)OCC1=C(C(=O)O)N2C(=O)C(NC(=O)c3ccc(F)cc3)C2SC1 (centres undefined),"inconclusive: 89.1 µM [inhibitor, single point]",
O=C(CSc1nc(-c2cccs2)nc2cc(=O)[nH]n12)Nc1ccccc1,"inconclusive: 100 µM [inhibitor, single point]",
O=C(O)c1ccc(S(=O)(=O)Nc2ccc(O)c(Sc3nc4ccccc4s3)c2)cc1,"inconclusive: 89.1 µM [inhibitor, single point]",
Cc1ccc(NC(=O)c2cc(-c3ccc(C)o3)nc3ccccc23)nc1,"inconclusive: 56.2 µM [inhibitor, partial curve, poor fit]",
O=S(=O)(Nc1ccc(-c2ccc(N3CCCCC3)nn2)cc1)c1ccc(OC(F)(F)F)cc1,,inactive: -11.2% [at 60.1 µM]
Cc1ccc(S(=O)(=O)/N=C2/NC(=O)/C(=C/c3ccc(Br)o3)S2)cc1,"inconclusive: 70.8 µM [inhibitor, partial curve, poor fit]",
COc1ccc2[nH]cc(CCNc3ncnc4ccc(-c5ccc(C(=O)N(C)C)cc5)cc34)c2c1,"inconclusive: 28.2 µM [inhibitor, partial curve, poor fit]",
Cc1[nH]n(-c2ccccc2)c(=O)c1C=NCCc1ccccc1,,inactive: -9.35%
O=[N+]([O-])c1ccc(O)c(/C=N/n2c(-c3ccccc3)n[nH]c2=S)c1,,inactive: 0.263%
CC(/C=N/n1c(-c2cccnc2)n[nH]c1=S)=C\c1ccco1,"inconclusive: 100 µM [inhibitor, single point]",
O=C(Cc1ccc(Br)cc1)N/N=C/c1ccc(-c2cccc(C(=O)O)c2)o1,"inconclusive: 100 µM [inhibitor, single point]",
COc1cccc(=O)c2c(C)n(C)c(C)c12,"inconclusive: 79.4 µM [inhibitor, partial curve]",
CCOc1ccc(NC(=O)c2cc3sc(Cl)cc3n2CC)cc1,"inconclusive: 89.1 µM [inhibitor, single point]",
CC(=O)OCC1=C(C(=O)O)N2C(=O)C(NC(=O)C(C)Cn3nc(C)c(Cl)c3C)C2SC1 (centres undefined),"inconclusive: 89.1 µM [inhibitor, single point]",
O=c1cc(COc2ccccc2Cl)nc2scc(-c3ccccc3)n12,"inconclusive: 100 µM [inhibitor, single point]",
CCOc1cc(/C=C2/C(=N)N3C(=NC2=O)SN=C3S(=O)(=O)CC)ccc1OC(=O)c1ccco1,,inactive: 4.45%

SMILES,Potency,"activity, negative = inhibition"
C#CCOCCOCCOCCNc1nc(N2CCN(C(=O)CCCCCCCCCCNC(=O)[C@H](CCCCN)n3cc(C)nn3)CC2)nc(N2CCN(C(=O)CCCCCCCCCCNC(=O)[C@H](CCCN=C(N)N)n3cc(C[C@@H](C)CC)nn3)CC2)n1,"inconclusive: 89.1 µM [inhibitor, partial curve, poor fit]",
O=C(O)c1cccc(S(=O)(=O)Nc2ccc([N+](=O)[O-])cc2O)c1,"inconclusive: 89.1 µM [inhibitor, partial curve, poor fit]",
CO[C@]12C(COC(N)=O)C3=C(C(=O)C(C)=C(N)C3=O)N1CC1NC12 (some centres undefined),"inconclusive: 14.1 µM [inhibitor, partial curve]",
COc1cc(OC)c(OC)cc1/C=C1\Oc2cc(OS(C)(=O)=O)ccc2C1=O,"inconclusive: 79.4 µM [inhibitor, partial curve]",
Cc1cc(=O)[nH]c2nnc(SCc3ccccc3F)n12,,inactive: -4.64% [at 60.1 µM]
Cc1ccc(Cc2c(C)nc3nc(SCC(=O)NCCC(C)C)nn3c2C)cc1,,inactive: -5.54%
Cc1nn(C)c(C)c1S(=O)(=O)N(CC(=O)Nc1ccc(F)cc1F)c1ccc(C(C)C)cc1,,inactive: -1.94%
C/C(N)=C(/C#N)C(=O)CSc1nn(-c2ccc(Cl)cc2)c(=S)s1,"inconclusive: 79.4 µM [inhibitor, single point]",
O=C1c2cccnc2C(=O)N1C1CCCCC1,,inactive: 7.81%
COc1cc(C2OCC3C(c4ccc(OC5OC(CO)C(O)C(O)C5O)c(OC)c4)OCC23)ccc1O (centres undefined),"inconclusive: 50.1 µM [inhibitor, partial curve, poor fit]",
O=c1[nH]c2cc(S(=O)(=O)CCO)ccc2o1,"inconclusive: 100 µM [inhibitor, single point]",
O=C1C=C(c2ccc3cc[nH]c3c2)C[C@@H](c2ccc3c(c2)OCO3)C1,active: 79.4 µM,
Cn1c(=O)c2c(-c3ccc(Br)cc3)n(Cc3ccc(F)cc3)cc2n(C)c1=O,"inconclusive: 100 µM [inhibitor, single point]",
O=C(O)c1cc(N/N=C/c2c(O)ccc3ccccc23)ccc1Cl,"inconclusive: 89.1 µM [inhibitor, single point]",
O=c1[nH]c(C(Cl)Cl)nc2sc3c(c12)CCN(Cc1ccccc1)C3,"inconclusive: 63.1 µM [inhibitor, single point]",
CCOc1ccccc1C1CC(=O)Nc2c1c(=O)n(C)c(=O)n2C (centres undefined),"inconclusive: 79.4 µM [inhibitor, partial curve]",
COC(=O)c1sc(-c2ccccc2)cc1NC(=O)Nc1ccc(F)cc1,"inconclusive: 50.1 µM [inhibitor, partial curve, poor fit]",
Cc1c(C(=O)O)cccc1-n1c(C)cc(C=O)c1C,"inconclusive: 79.4 µM [inhibitor, single point]",
O=C(Nc1ncc([N+](=O)[O-])s1)c1ccccc1Br,"inconclusive: 89.1 µM [inhibitor, single point]",
Cc1ccc2c(nc3s/c(=C/c4cccs4)c(=O)n32)c1C,"inconclusive: 79.4 µM [inhibitor, partial curve, poor fit]",
CCc1cc(C(=O)NCC(c2ccco2)N2CCCCC2)sc1C (centres undefined),,inactive: -1.62%
CCc1nnc(NC(=O)CSc2nc3[nH]c(=O)cc(O)c3s2)s1,"inconclusive: 89.1 µM [inhibitor, partial curve, poor fit]",

SMILES,Potency,"activity, negative = inhibition"
O=C(Nc1nc(-c2ccco2)c(-c2ccco2)s1)c1ccco1,active: 79.4 µM,
N#Cc1c(N2CCN(c3ccc(F)cc3)CC2)nc(N)c2c(N)nc3c(c12)CC(=O)N3C1CC1,,inactive: -9.21%
COc1cccc(N2CCN(C(=O)c3ccc(=O)oc3)CC2C)c1 (centres undefined),"inconclusive: 89.1 µM [inhibitor, single point]",
CC/C(C)=N/Nc1nc(-c2cc3cccc(OC)c3oc2=O)cs1,"inconclusive: 100 µM [inhibitor, single point]",
CCOc1ccc(/C=C2/SC(=O)NC2=S)cc1,"inconclusive: 89.1 µM [inhibitor, single point]",
O=S(c1ccccc1O)S(=O)c1ccccc1O (centres undefined),"inconclusive: 39.8 µM [inhibitor, full curve]",
Cc1cccc(NC(=S)NC(=O)/C=C/c2ccco2)c1,active: 79.4 µM,
CCN1CCN(S(=O)(=O)c2ccc(Cl)c(C(=O)NC(C)(C)C)c2)CC1,"inconclusive: 89.1 µM [inhibitor, single point]",
CC1=NN(c2ccc(Cl)c(C(=O)O)c2)C(=O)/C1=C\c1ccc(-c2ccc(C(=O)O)cc2)o1,"inconclusive: 56.2 µM [inhibitor, partial curve, poor fit]",
N=C1/C(=C\c2ccc(-c3cccc(C(=O)O)c3)o2)C(=O)N=C2SC=C(c3ccccc3)N12,active: 39.8 µM,
OCC(O)C(O)C(O)C(O)C(O)CO (centres undefined),"inconclusive: 39.8 µM [inhibitor, single point]",
Cc1nc(SCC(=O)c2ccccc2)c(C#N)c(-c2ccco2)c1C(=O)NCc1ccco1,"inconclusive: 89.1 µM [inhibitor, partial curve, poor fit]",
Cc1ccc(NC(=O)CSCC(=O)NC2=NCCS2)cc1,,inactive: -8.43%
Cc1ccc(S(=O)(=O)N(CCC(=O)N2CCOCC2)c2ccccc2)cc1,"inconclusive: 89.1 µM [inhibitor, single point]",
N#Cc1c(SCC(=O)Nc2ccccc2C(F)(F)F)sc2c(O)cc(=O)[nH]c12,"inconclusive: 70.8 µM [inhibitor, partial curve, poor fit]",
Cc1cc2c3c(c1C)C1(C(=O)N3C(C)(C)CC2C)C(C#N)=C(N)Oc2cc(O)ccc21 (centres undefined),"inconclusive: 70.8 µM [inhibitor, partial curve, poor fit]",
Cc1cc(-c2ccc(Br)s2)nc(-n2cccc2)n1,"inconclusive: 79.4 µM [inhibitor, partial curve, poor fit]",
Cc1ccc(C(c2c(O)nc3n(c2=O)CCS3)c2c(O)nc3n(c2=O)CCS3)cc1,,inactive: -33.6%
O=C(NCc1ccco1)c1ccc([N+](=O)[O-])o1,"inconclusive: 89.1 µM [inhibitor, single point]",
CC1=NN(c2ccc(C)cc2)C(=O)/C1=C/c1ccc(-c2cc([N+](=O)[O-])ccc2O)o1,active: 79.4 µM,

# From PubChem BioAssay AID588579 (National Center for Advancing Translational Sciences (NCATS), 2011)
